Results as given in PubChem BioAssay AID1159614 (National Center for Advancing Translational Sciences (NCATS), 2016).
Among all 45,000 compounds or so, about 65 (0.1%) were called active. Calls come from the whole dose curve; as a rule, active = well fitted activation curve with a large enough effect; inconclusive = small, poorly fitted or top-dose-only effect; inactive = no such curve, though single readings can be large or run the other way. This is one part of the list.

Target: Galactocerebrosidase (Homo sapiens) (UniProt P54803)
Sequence of UniProt P54803 (P54803 whole entry, looked up): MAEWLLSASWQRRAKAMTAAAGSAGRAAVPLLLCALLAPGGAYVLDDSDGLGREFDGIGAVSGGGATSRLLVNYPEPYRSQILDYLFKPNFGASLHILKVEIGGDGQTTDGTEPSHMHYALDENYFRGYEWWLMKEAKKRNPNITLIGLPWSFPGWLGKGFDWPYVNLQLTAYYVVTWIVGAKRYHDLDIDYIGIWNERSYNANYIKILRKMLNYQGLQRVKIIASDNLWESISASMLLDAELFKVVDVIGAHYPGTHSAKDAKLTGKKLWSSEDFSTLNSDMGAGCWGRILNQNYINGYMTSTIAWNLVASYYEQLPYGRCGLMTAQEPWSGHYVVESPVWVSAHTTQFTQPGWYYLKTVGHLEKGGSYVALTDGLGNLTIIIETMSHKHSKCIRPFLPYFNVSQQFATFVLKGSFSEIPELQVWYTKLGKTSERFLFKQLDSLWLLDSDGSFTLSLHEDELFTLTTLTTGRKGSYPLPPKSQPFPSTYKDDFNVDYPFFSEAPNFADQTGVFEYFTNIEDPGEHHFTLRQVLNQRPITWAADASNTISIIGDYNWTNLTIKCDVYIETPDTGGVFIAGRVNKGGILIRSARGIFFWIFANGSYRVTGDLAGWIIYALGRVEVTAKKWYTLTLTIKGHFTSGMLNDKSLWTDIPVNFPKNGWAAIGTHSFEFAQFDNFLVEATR
Assay: A Novel Cell-Based Assay to Identify Small Molecules for B -Galactocerebrosidase; note: 0% is about no effect; nearly all actives have a fitted effect of over 65% in size
Details: 145M-Twi-hGALC-G270D cells (Twitcher mouse brain line with human GALC G270D), HMU-beta-Gal fluorescence, 48 h; series mostly up to 57.5 µM; activation: at the top concentration
Summary of the method: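 Fluorogenic HMU-b-Gal hydrolysis (0.1 mM final, pH 5.2 citrate-phosphate with 1 mg/mL sodium taurocholate; carbonate stop buffer) measures mutant GALC activity after compound treatment of live 145M-Twi Twitcher brain cells stably carrying human GALC-G270D, with wild-type GALC line alongside; activation sought.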

SMILES	activation
COc1cccc(NC(=O)N(Cc2c[nH]c3ccccc23)C2CCCCCC2)c1	inactive: -12.4%
CN(C(=O)c1cc2c(Cl)nc3ccccc3c2s1)c1cccc(C(F)(F)F)c1	inactive: -8.94%
CCn1c(C(=O)Nc2c(C)cccc2C)cc2sc(Cl)cc21	inactive: -9.73%
CCn1c(=O)c2cc(C(=O)NC3CCC(C)CC3)sc2c2ccccc21 (stereo not given)	inactive: -14%
Cc1ccccc1NS(=O)(=O)c1ccc2[nH]cc(C(=O)NC3CCCCC3)c(=O)c2c1	inactive: -11.5%
COc1ccc(NC(=O)c2cc3c(=O)n(Cc4cccs4)ccc3nc2C)cc1	inactive: -20.8%
Cc1ccc(NC(=O)c2c(NC(=O)c3ccc(F)cc3)sc3c2CCCC3)cc1C	inactive: -17.8%
COc1ccc(-n2c(C)nnc2SCc2nc(-c3ccc(OC)c(OC)c3)no2)cc1	inactive: -15.3%
COc1ccc(OC)c(NC(=O)Cn2c(=O)n(-c3cccc(C)c3)c(=O)c3c2c2cc(C)ccc2n3C)c1	inactive: -0.64%
CCc1ccccc1N(C)C(=O)Cn1cnc2sc(C)c(S(=O)(=O)N3CCC(C)CC3)c2c1=O	inactive: -12.1%
CCOc1ccc(-n2c(SCC(=O)Nc3cc(C)on3)nc3c([nH]c4ccccc43)c2=O)cc1	inactive: -14%
COc1cccc(CNC(=O)CCCn2nc(C)c3sc4ccccc4c3c2=O)c1	inactive: -5.59%
CCOC(=O)c1c(C)oc2nc(C)nc(N3CCN(c4cc(Cl)ccc4C)CC3)c12	inactive: -8.51%
CCOC(=O)c1cc(OC(=O)c2cc(OC)c(OC)c(OC)c2)n(-c2ccccc2)n1	inactive: -1.51%
COc1ccc(N(CC(=O)N2CCN(c3ccccc3)CC2)S(=O)(=O)c2c(C)nn(C)c2C)cc1	inactive: -8.41%
O=C(Cc1ccccc1)N(Cc1cccnc1)c1nc2c(Cl)cccc2s1	inactive: -0.843%
COc1ccc(-c2cc3nc(C)c(CCC(=O)NCc4ccccc4Cl)c(C)n3n2)c(OC)c1	inactive: -21.9%
COc1ccc(C)cc1NC(=O)Cn1c(=O)oc2cc(S(=O)(=O)N3CCCCC3)ccc21	inactive: -12.1%
Cc1ccc(Nc2ccc3cc(S(=O)(=O)N4CCCCC4)ccc3n2)cc1F	inactive: -8.49%
CCn1cc2nc(SCC(=O)Nc3ccc(OC)c(Cl)c3)n(Cc3ccc(OC)cc3)c(=O)c2n1	inactive: 0.83%

SMILES	activation
CCOC(=O)c1ccc(NC(=O)CSc2nc(-c3ccc(OC)cc3)cc(C(F)(F)F)c2C#N)cc1	inactive: -11.1%
CCc1nnc(SC(CC)C(=O)Nc2ccc(OC)c(Cl)c2)c2cc3occc3n12 (stereo not given)	inactive: -15.5%
CCOc1ccc(NC(=O)NCCN2CCN(c3cccc(C)c3C)CC2)cc1	inactive: -16.6%
CCc1cccc(C)c1NC(=O)C1CCN(S(=O)(=O)c2c(C)noc2/C=C/c2c(C)cc(C)cc2C)CC1	inactive: -17.4%
N#Cc1nc(COc2ccccc2Cl)oc1NCCc1ccccc1	inactive: -13.1%
O=C(CCC1CCCC1)N1CCc2c([nH]c3ccccc23)C1c1ccc(F)cc1 (stereo not given)	inactive: -8.63%
CC(=O)c1ccc(NC(=O)c2cn(-c3ccccc3)nc2-c2ccc(Br)cc2)cc1	inactive: -6.98%
Cc1ccc(NC(=O)Nc2cccc(C)n2)cc1	inactive: -1.16%
Cc1cc(C)c(NS(=O)(=O)c2ccc3c(c2)CC(C)N3C(=O)C2CCC2)c(C)c1 (stereo not given)	inactive: -14.1%
CCOc1ccc(C2CC(=O)NC(NC(=O)c3cccc(Cl)c3)=N2)cc1 (stereo not given)	inactive: -12.2%
COc1ccccc1Nc1nc(-c2ccc(F)cc2)c2c(n1)-c1ccccc1OC2	inactive: -5.63%
COc1ccccc1CNC(=O)CCCn1c(=O)c2ccccc2n(Cc2ccc(F)cc2)c1=O	inactive: 19.7%
Cc1ccc(CCNC(=O)CN(c2cc(C)cc(C)c2)S(=O)(=O)c2c(C)noc2C)cc1	inactive: 13.7%
COc1cccc(-n2ccn(CC(=O)NCc3ccc(C)cc3)c(=O)c2=O)c1	inactive: 0.349%
COc1ccccc1NC(=O)c1c(C)cc(C)nc1SCC(=O)Nc1ccc(C)c(C)c1	inactive: -21.3%
CCOC(=O)c1nnn(CC(=O)Nc2cc(C)cc(C)c2)c1C(=O)OCC	inactive: -16.5%
COc1ccccc1CNC(=O)c1cc2cccc3c2n1CC(C)S3 (stereo not given)	inactive: -19.3%
COc1ccc(NC(=O)CC2C(=O)N(c3ccccc3)C(=O)N2C2CCCCC2)cc1 (stereo not given)	inactive: -8.69%
CS(=O)(=O)N(CC(=O)NCCSCc1ccccc1)c1cc(C(F)(F)F)ccc1Cl	inactive: -18.2%
O=C(Cn1cnc2onc(-c3ccc(F)cc3)c2c1=O)Nc1cccc(C(F)(F)F)c1	inactive: -53.7%

SMILES	activation
CCOC(=O)c1ccc(NC(=O)c2nc(SC(C)C)ncc2Cl)cc1	inactive: -7.15%
Cc1ccc(CNC(=O)CCCN2C(=O)CCn3nc(-c4cn(C)c5ccccc45)cc32)cc1	inactive: -6.28%
Cc1nc2c(-c3ccccc3)c(C)nn2c(C)c1CCC(=O)NCc1ccc(Cl)cc1	inactive: -8.27%
COc1ccc(CCNS(=O)(=O)c2ccc(N3CCCCS3(=O)=O)cc2)cc1OC	inactive: -10.4%
Cc1ccc(C)c(Cn2cnc3c(cnn3-c3ccc(F)cc3)c2=O)c1	inactive: -10.3%
CCN(Cc1ccccc1)S(=O)(=O)c1ccc2c(c1)CCCN2C(C)=O	inactive: -11.5%
CCc1ccc(NC(=O)N2c3ccccc3Sc3ccccc32)cc1	inactive: -8.95%
Cc1ccc(-c2c(C(=O)NCc3ccc(F)cc3)oc(=O)c3ccccc23)cc1	inactive: -9.02%
Cc1cc(-c2ccccc2)n2nc(-c3cccc(Br)c3)cc2n1	inactive: 1.15%
CC1CCN(C(=O)CN2c3ccc(C(C)C)cc3-c3ccccc3S2(=O)=O)CC1	inactive: -13.4%
Cn1nc(C(=O)NCc2ccc(F)cc2)c2c1-c1ccccc1SC2	inactive: 0.39%
COc1ccc(/C(C)=C/C(=O)O)c(OC)c1	inactive: -12.4%
Cc1ccc2cccc(NC(=O)c3ccc(-c4cccc(Cl)c4Cl)o3)c2n1	inactive: -5.52%
CSCCC(NS(=O)(=O)c1ccc2c(c1)oc(=O)n2C)C(=O)NCc1ccccc1 (stereo not given)	inactive: -12.2%
COc1ccc(CCCc2nnc(SCC(=O)Nc3ccc(F)cc3)o2)cc1C	inactive: -14.5%
CC(C)CN(CCNC(=O)c1cn(C)c2ccc(S(=O)(=O)N3CCOCC3)cc2c1=O)CC(C)C	inactive: 8.98%
Cc1ccccc1NC(=O)Cn1c(=O)n(Cc2ccc3c(c2)OCO3)c(=O)c2ccc(C(=O)NC3CCCCC3)cc21	inactive: 8.48%
CC(=O)c1cccc(NC(=O)c2oc(=O)c3ccccc3c2-c2ccccc2)c1	inactive: -4.39%
COc1ccc(N2CCN(C(=O)CCC(=O)NNc3nc4ccccc4c4nc(C)nn34)CC2)cc1	inactive: -6.48%
Cc1ccc(C)c(N2CCN(C(=O)c3ccc(Nc4nc5ccccc5n5nnnc45)cc3)CC2)c1	inactive: -16.8%
